Sequences and labels used below:
B1: LINE1-mini (parent)
chain: GGCAGAGCUCAACACAGCGUGGCAAAGUGGCUGUGGCUAGACUGCC

This note sets out measurements from the RNAGym collection of RNA variant scans (doi:10.7554/elife.90254).

The source gives no read counts; variants with many changes may rest on few reads.

In the series the parent is B1. The series is described as follows: self-cleavage, relative activity (ratio to wild type); higher = more cleavage; in vitro, sequencing; the parent is a self-cleaving ribozyme.
For the variant AGGAGAGCUCAACACAGCGUGGCAAAGUGGCUGUGGCUAGACUUCC, the self-cleavage was 0.24. The figure for GGCAGAGCCCAACACAGCGUGUCAAAGUGGCUGUGGCUAGGCUGCA is 0.02; for GGAAGGGCUCAACACAGCGUGGCAAAGUCGCUGUGGCUAGCCUGCC it is 0.03; for GGCAGAGCUCAACACUGCGUGGCAAAGUGGCUGUGGCUAUACAGCA it is 0.05.

For GUCAGAGCUCAACACAGCGUGGCAAAGUGGCUGUCGCUAGACUCCC, the self-cleavage turned out to be 0.03. Regarding GGCAGAGCUCAACACAGCGCGGGACAGUGGCUGAGGCUAGGCUGCC, the self-cleavage was determined as 0.06. Regarding GGCAGAGCUCAUCCAAGCGUGCCAAAGUGGCUGUGGCUAGACUGCC, the self-cleavage was 0.02. The value for GGCAGAGCUCAACACAGCGUUGCAAAGUGUCUCUGGCUACACUGCC was 0.12.

Regarding GGCAAAGCUAAACACAGCGUUGCUAAUUGGCUGUGGCUAGACUGCC, the self-cleavage was determined as 0.02. The figure for GGCAGAGCUUAACACAGCGUAGCAAAGAGGCUGUAGCUAGACUGCC is 0.08. Regarding GACAGAGCGCAACGCAGCGUGGCAAAGUGGCUGUUGCUAGACUGCC, the self-cleavage was 0.16. The value for GGCAGGGCUCAACACAGGGUGGCGAAGUGGCUGUGGCUAGACUGCC was 0.13; that for GGCAGAACUCUACACAGCGUGGCAAAGUGGCUGUGGCUAGACUGUC was 0.05; that for GGCCGAGCUGAACACAGCGUGGCAAAGUGGCCGUGGCUAGACUGCC was 0.01.

On to GGCAUAGCACAACUCAGCGUGAUAAAGUGGCUGUGGCUAGUCUGCC, for which the self-cleavage worked out at 0.73. On to GGCAGAGCUCCACACAGCGUGGCAAAGUGGCUGAGGCUAGACUGCA, for which the self-cleavage came to 0.03. The figure for GGCAGAGCUAGACACAGCGUUGCAAAGUGGCAGUGGCUAGACUGCC is 0. AGCAGAGCUCAACACAGCGUUGCAAAGUGGCUGUGGCUAGACUGAC: the self-cleavage was 0.6.

As to GGCAGAGCUCAACACAGCGUAGCAAAGAGGCUUUGGCUGGACUGCC, the self-cleavage was 0.18. For GGCAGAGCUCAACACAUCGUGGCUAAGUGGCUGUGGCUUGACUGAC, the self-cleavage is 0. Regarding GGGAGAGCUCAAUACAGCGUGGCAAUGUGGCUGUGGCUAGACUGCC, the self-cleavage stood at 0.1.

Turning to GGCAGAGCCCAAGAUAACGUGGCCUAGUGGCUGUGGCUAGACUGCC, the self-cleavage amounted to 0.01. The value for GGCAGAGAUCAACACAUCGUGGCAAAGGGGCUGUGUCUAGACUGCC was 0.31; that for GUCAGAACUCAACCCAGCGUGGCGAAGUGGCUGGGGCUAGACUCCC was 0.03; that for GGCAGAGCUCAACACAGCGUUGCAAAGUGGCGGUGGCUAGACUGCA was 0.06. The figure for GGCAGAGCUCAAAACAGCGUGGCAAAGUGGCUGUGGCUAGUCUGCU is 0.1; for GGCAGAGCUCAACACAGCUUGGCCAAGUGGCUGUUGCUAGAGUGCC it is 0.04. The value for GGAAGAGCUGAACACACAGUGGUAAAGUGGGUGUGGCUAGCCCGCC was 0; that for GGCAGAGCUCAACAGAGUGUGGCAAAGGGUCUGUGGCUAGACUGCC was 0.02.

As to GCCAGAGCUCUACACAGCGUGGCAAGGUGGCUGUGGCUAGACUCCC, the self-cleavage is 0. Take GGCAGAGCUAAACACAGCCUGGCAAAAUGGCUGCGGCUAGACUGCC: the self-cleavage turned out to be 0.01. With GGCAGAGCUCAACACAGCGUGGCAAAGUGGCUGUAGCUAGACGGAC, the self-cleavage stood at 0.12. The figure for GGCAGAGCGCAACACAGCGUGGCAAAAUGGCUUUGGCAAGACAGCC is 0.01; for GGCGGAGCUCAACACAACGUGGCAAAGUGGCUGGGGCUAGACUGCC it is 0.04; for GCCAGAGCUCAACACAGCCUGGCCAAGUGGCUGUGGCUAGACUUCC it is 0.1. The figure for GGGAGAGCUCAACACAGCUUAGCUAAGUGGCUGUGGCUAGACUGCC is 0.97; for GCCAGAGCUCAACACAGCGUGCCAAAGCCGCUGUGGCUAGACUGCC it is 0.11. The value for GGCAGAGCUCAACACAGCAUGGCAAAUUGACUCUGGCUAGACUGCC was 0.06. Turning to GGCAGAGCCCAACACAGCGUGGCAAAGUGGCGGUGCCUAGACUGCC, the self-cleavage is 0. On to GGCAGAACUCAACACACCGUGGCAAAUUGGCUGUGGCUAGACUGCC, for which the self-cleavage is 0.19. The value for GGCAAAGCUCAACACAGCGUGCCCAAGUGGCUGUGGCUAGACUGCC was 0.04; that for GUCAGAGCUCAACACAGCGUGGUAAAGUGGCUGUUGGUAGACUGCC was 0.08; that for GACAGAGCACAACACAGCGUGGCAAAGUGGCUGUGCCUAGACUGCC was 0.02.

With CGCAGGGGUCAACAGUGCGUGGCACAGUGGCUGUGGCUAGACUGCC, the self-cleavage is 0.

As for AGCAGAGUUCAACACAACGUGGCAAAGUGGAUGUGGCUAGACUGCC, the self-cleavage came out at 0.4. The value for UGCAGAGCUCAUCAAAGCGUGGCACAGUGGGUGUGGCUAGACUGCC was 0.04.

GGCAGAGAUCAACACAACGUGGCAAAGUGGCGGUGGCUAGACUGCG: the self-cleavage was 0.08. The value for GGCAGAGCUCAACACAGCGUGGCAAAAUGGCUGUGGCUAGACCGCG was 0.12; that for GGCAAAGCUCAACUCAGCGUGGCAAAGUGGCUGUGGCUAGACUCCC was 0; that for GGCAGAUCUCAACACAACGUGGCAACGUGGCUGUGGCUAGACUGCC was 0.02. As for GGCAGAGCUCAACACAGCGUGGCAAAGUUACUGUGGCUAGACUUCC, the self-cleavage was found to be 0.08.

In the case of GGCUUUGCUCAACACAGCGUGGCACACUGGCUGUGGCUAGACUGCC, the self-cleavage came out at 0.08.

With GCCAGAGCUCGACACAGCGUGGCAAAGUGCCUGUGGCUAGACUGCC, the self-cleavage came to 0.02. The figure for GGCCGAGCUCAACACAGCGUGGCAAAGUGGCUGUGGGUAGACUGCU is 0.12.

In the case of GGCCGAGUUCAACACAUCGUCGCAAAGUGGCUGUGGCAAGACUGCC, the self-cleavage amounted to 0.12. The figure for GGCAGAGCUCAACACGGCGUGGCAAAGGGGCUGUGGCUAUACUGCC is 0.02; for GGCAGCGCUCAACUCCGCGUGGCAAAGUGGGUGUGGCUAGACUGUC it is 0.05. In the case of GGCAGAGCUCAACACAGCGUGGCUAAGUGGCUGCGACUAGACUGCC, the self-cleavage stood at 0.06.

Regarding GGCAGAUCUCAACAUAGCGUAGUACAGUGGCUGUGGCUAGACUGCC, the self-cleavage was 0.15. The figure for GGCAGCGCUCAACACAGCGUGGCAAAGUGCCUGUGCCUAAACUUCC is 0.02. The value for GGCAGAGCUCAACACAGCGCGGUAAUGUAGCUGUGGCUAUACUGUC was 0.16; that for GGCAGAGCUCAUCAGAGCGUGGCAAAGUGGCUGUGGCUGGACUGCC was 0.04; that for GGCAGAGCUCAACACAGCGCGUCAAGGUGGCUGUGGCUAGACUGCC was 0.25. GGCAGAGCUCAACACAGCGUGGUAAAGUGGCCGUGGCUACACUGCC: the self-cleavage was 0.1. The figure for GGCAUAGCUCAACACAGUCUAGCAAAGUUGGUGUGGAUAGACUGCC is 0.12; for GGCAGAGCUCUACACAGCGUGGCAAAGUGGCUGUGGCUGGACUGCA it is 0.06. The value for GGCAGAUCUCAACACAGUGUGGCAAAGUGUCUAUGGCUAGACUGUC was 0.12. The figure for GGCAGAGCUCAAAACUGAGUGGCAAAGUCGCUGUGGCUAGACUUCC is 0.01. Consider GGCAGAGCUCAGCACAGUGUGGCGAAGUGGCUGUGGCUAGACUGCC, for which the self-cleavage amounted to 0.03. For GGCAGGGCUCAAAACAGCCUGGCAAAGGGGCUGUUGCUAGACUGCC, the self-cleavage is 0.07. For GGCUGAGCUCAACACAGCGUGGCAAAGUGGCUCUGGCUAGACCGCC, the self-cleavage came to 0.07. GGCUGAGCUAAACACAGCGUGGCAAAGUGGCUGAGGCUAGAAUGCC: the self-cleavage came out at 0.05. The value for GGCAUAGCUGAAAACAGCGUGGCAAAGUGGCUGUGGCUAGACUGCG was 0.05; that for GGCCGAGCUCAACACAGCGGGGCAAAGUGGAUUUGCCUAGACUGCC was 0.06; that for AACAGAGCUCAACACAGCGUGGCAAAGUGGCUGUGGCUGGACUGCC was 1. On to GGCAGAGCCCAACACAGCGUGGCAAAGUGUCUGUAGCUAGACUGCC, for which the self-cleavage amounted to 0.04. The value for GGCAGAGCUCAACACAGCGUGUAAAAGUGGCUGUGGCUAGACCGCC was 0.07; that for GGCAGAGCUCAGCACAGCGUGCCAAAGGGGCUCUGGCUAGACUGCC was 0.19; that for GGUAGAGCUCAGCAUAGCUUGGCAAGGUGGCUGUGGCUAGACGGCC was 0. The value for CGCAGAGCUUAACACAACUUGGCAAAGUGGCCGUGGCUAGACUGCC was 0; that for GGCAGAGCUCAACACAUAGUGACAAAGUGGCUGUGACUAGACUGCC was 0.07; that for GGCAGAGCUCAACCCAGCGUGGCAAAGUAGCUGUUGCUAGACUGUC was 0.07. As for GCCAGAUCUCAACACAGCGAGGCAAAGUGGCUGUGGCUAGACUGCC, the self-cleavage amounted to 0.18. Take GACAUAGCACGACACAGCGUGGCAAAGAGGCUGUGGCUAGACUGCC: the self-cleavage is 0.05. The figure for GGCAGAGCCCAAAAGAGCGUGGCAAAGUGGCUGUGUCUAAUCUGCC is 0.02; for GACAGAGCUCAACACAGCGUGGCAAACUGGCUGUGGCUAGACUGGC it is 1.08; for GGCAGAGCUCAACACAGCGUGGCAAAGUAACUGUGGGUAGACUGCC it is 0.05.

Consider CGCAGAGCUCAACACAGCGUGGCAAAAUGGAUGUGGCUAGACUGCC, for which the self-cleavage turned out to be 0.03. Regarding GGCAGAGCACAACACAGCGUGGCUAGGUGGCUGUGCCUAGAGUUCC, the self-cleavage turned out to be 0.05.

UGCAGAGCUCAACACAGCCUGGAAAAGUGGCUGUGGCUAGACUGCC: the self-cleavage turned out to be 0.1. The figure for GGCAGAUCUCACCUCAGCGUGGCAAAUUGGCUGUGGCUAGACUGCC is 0.04; for GGCAGAGCUCAACACAGCGUGUCAAAAUACAUGUGGCUAGACUGCC it is 1.73. Consider GUAAGAGCUCAACACAGCGUGGCAAAGUGGCUGUGGCUAGAAUGAA, for which the self-cleavage was determined as 0.19.

Regarding GGCAGAGCUUAACACACCGUGGCAAAGUGGAUGUGGCUAGACUGCC, the self-cleavage was 0.1.

Take GGCAAAGCUCAACACCGCGUGGCAAUGUGGCUGUGGCCAGCCUGCC: the self-cleavage came out at 0.02. The value for GGCUGAGCGCAACACAGCGUGGCAAAGUGGAUGUGGCUAGACUGCC was 0.05.

Regarding GGCAGAGCCCAAUACAGUGUGGCAAAGUGGCUGUGGCUAGGCUGCC, the self-cleavage was 0.02. The figure for GGCAGAUCUCAACACAGCGUGGCAAAGUGGCUAGGGCUAGACUGCC is 0.03.

For the variant GGUAGCGCUCAACCCAGCGUGGCAAAGUAGCUGAGGCUCGACUGCC, the self-cleavage stood at 0.14. The value for GGCAGAGCUCAACACAGCGUGGUAAAGCGGCUGUGGCGAGACUGCC was 0.01; that for GGCAGAGCUCAACACAGCGUGGCAAAGUGGCCGUGGAUGGACUGCC was 0.01; that for GGCAGAGCUCAACACAGCGUCGCAAAGGGGCUGUGUCUAGACUGCC was 0.01. On to GGCAGAGCUCAAGCCGGCGUGGCAAAGUGGCUCUGGCUAGACUGCC, for which the self-cleavage turned out to be 0.01. Consider UGCAGAGCUCAACACCGCGUGGCAAAGUGGCGGUGGCUAGACUGCC, for which the self-cleavage stood at 0.24. Regarding GGCAGAGCUCAACACAGCGUGGCGAAGCGGCUAUGGCUGGACUGCC, the self-cleavage worked out at 0.09.

Turning to AGCAGACCUCAACAAAGCGUGGCAAAGUGGCUGUGGCUAGACUUCC, the self-cleavage was 0.

Turning to GGCAGAGCUCAACACAGCUGGGCAAAGUGGCUGUGGAUAGACUGCC, the self-cleavage came out at 0.01. The value for GGCGGAGCUCGUCACAGCGUCGCAAAGUGGCUGUGGCUAGACUGCC was 0. With GGCGGAGCUCUACAUAGCGUGGCAAAGUGGCUGUGGCUGGACUGCC, the self-cleavage worked out at 0.02. The value for GGCAGAGCUCAACACACCGUGGCAAAGAGGCUGUGGCUAGACAGCC was 0.09; that for GGCAGAGCUCAACUAAGCGUGGCAAAGUGGCUGUGGCUAAAGUGCC was 0.16; that for GGAAGAACUCAACACAGCGUGGCAAAGUGAGUGUGGCUAGACCGCC was 0.18.
